Data on 53 molecules can be found in ChEMBL document CHEMBL4888484, “Replenishing the malaria drug discovery pipeline: Screening and hit evaluation of the MMV Hit Generation Library 1 (HGL1) against asexual blood stage Plasmodium falciparum ,using a nano luciferase reporter read-out” (2022).

The whole screen tested about 150,000 compounds, of which about 540 (0.36%) showed an effect of 50% or more. The list shows a part of the results.

For this assay, the system named is Plasmodium falciparum. Briefly: Primary screen in NF54 nanoGlo assay, in single point, at 2uM, 72h; a lower Z score goes with more inhibition. The assay is classed as functional, Erythrocyte. The settings on record: timepoint 72 hour.
As to `Cc1cccc(-c2ncc(C(=O)NCC(C)C)c(Oc3ccc4c(c3)OCO4)n2)c1`, the “% Inhibition” value is 10% and the Z score is recorded as -1.21.

On to `CC(C)CCn1c(=O)c(-c2ccc3ccccc3n2)cc2ccccc21`, for which the “% Inhibition” value is reported as -1% and the Z score was determined as 0.07.

Turning to `C[C@](O)(CNS(C)(=O)=O)c1cccs1`, the “% Inhibition” value turned out to be 0% and the Z score is on record as -0.02.

Consider `CC(C)n1c(N2CCCN(C(=O)c3cccc(Br)c3)CC2)cc(=O)n(C(C)C)c1=O`, for which the “% Inhibition” value was found to be 1% and the Z score was -0.23.

Regarding `COC(=O)c1ccc(CN[C@@H](C)c2cnn(-c3cccc4ccccc34)c2C)cc1`, the “% Inhibition” value was 7% and the Z score was -0.83.

Regarding `Cc1nn(C)c(C)c1CC(=O)N1CCC2(CCC2)S(=O)(=O)CC1`, the “% Inhibition” value is recorded as -5% and the Z score was found to be 0.46.

As for `Cc1cc(C)nc(N[C@@H](Cc2ccccc2)C(=O)Nc2cccc(-c3nnn(C)n3)c2)n1`, the “% Inhibition” value is listed as 1% and the Z score is reported as -0.09.

On to `COc1cccc(CNC(=O)N2CCN(Cc3cccc(C)c3)C(=O)[C@@H]2C)c1`, for which the “% Inhibition” value is -15% and the Z score came to 1.84.

For the molecule `CC(C)N(C(=O)c1ccc(CS(C)(=O)=O)o1)C(C)C`, the “% Inhibition” value is given as -9% and the Z score worked out at 1.22.

`COC1(c2nc(-c3ccsc3)no2)CCOCC1`: the “% Inhibition” value is given as -7% and the Z score is given as 1.31.

Take `C[C@@H](C(=O)N1CCN(c2ccccc2Cl)CC1)n1nc2c(cc1=O)CCC2`: the “% Inhibition” value was determined as 19% and the Z score is -2.44.

Take `CCOC(=O)c1cc(C(=O)Nc2cccc(S(=O)(=O)N3CCOCC3)c2)nn1C`: the “% Inhibition” value turned out to be 1% and the Z score is on record as -0.18.

Regarding `CC(C)c1nc(CC(=O)N2CCCc3cc(Cl)ccc32)cs1`, the “% Inhibition” value stood at 5% and the Z score is -0.85.

On to `O=C(c1cn2c(n1)CCCC2)N1CCN2C(=O)NC[C@H]2C1`, for which the “% Inhibition” value is listed as -9% and the Z score is reported as 1.53.

For the molecule `Cc1cc2ncc3c(n2n1)CCN(C(=O)CCc1ccccc1F)C3`, the “% Inhibition” value was -2% and the Z score was 0.31.

On to `Cc1nc(CN2CCN(C)C(=O)C2)n(C)c1C`, for which the “% Inhibition” value was -10% and the Z score is given as 1.31.

Take `Cc1nnc([C@H](C)NC(=O)c2cc(Cl)c(C)c(Cl)c2)o1`: the “% Inhibition” value was -11% and the Z score is given as 1.94.

`COc1cc(/C=C/CN2CCC[C@H](CNC(=O)c3ccco3)C2)ccc1O`: the “% Inhibition” value came out at 8% and the Z score is on record as -1.03.

Take `CCc1nccn1C[C@H]1CC2(CCOCC2)CO1`: the “% Inhibition” value is listed as -10% and the Z score was 0.88.

Regarding `O=C(Nc1ccc(F)cc1F)Nc1cccc2c(-c3ccccc3)c(C(=O)N3CCOCC3)[nH]c12`, the “% Inhibition” value was -9% and the Z score came out at 1.46.

`COc1ccc(-c2cc(C(=O)N3CC[C@@]4(CN(C)C(=O)CO4)C3)n[nH]2)cc1`: the “% Inhibition” value is given as -9% and the Z score turned out to be 0.88.

In the case of `c1nncn1Cc1noc([C@@H]2CCCO2)n1`, the “% Inhibition” value is -4% and the Z score came to 0.58.

As for `CCOC(=O)c1ccc(NC(=O)N(Cc2nnc(CC)o2)C(C)C)cc1`, the “% Inhibition” value is -5% and the Z score came to 0.85.

`O=C(NCC(F)(F)F)N1CC[C@@]2(C1)OCc1ccccc12`: the “% Inhibition” value is listed as -6% and the Z score turned out to be 0.8.

On to `Cc1ccc(C#N)nc1N1CCCO[C@@H](C)C1`, for which the “% Inhibition” value is on record as -10% and the Z score came out at 1.17.

With `NC(=O)c1cnc(NC(=O)c2ncccc2Oc2ccccc2)s1`, the “% Inhibition” value is recorded as -36% and the Z score is recorded as 4.22.

For `CN1Cc2ccccc2S(=O)(=O)NC1=O`, the “% Inhibition” value was -5% and the Z score is 0.97.

As to `O=C(NC1(c2ncon2)CCC1)c1ccccc1O`, the “% Inhibition” value is -20% and the Z score came out at 2.54.

With `CCCc1nc(N(C)C[C@H]2CCCN2C)no1`, the “% Inhibition” value is given as -9% and the Z score was determined as 1.16.

With `COCCn1cc(C2C(C(=O)Nc3nc(COC)cs3)CC(=O)N2C(C)(C)C)cn1` (stereo unspecified), the “% Inhibition” value is given as 8% and the Z score is given as -1.11.

On to `C[C@@H](NC(=O)c1ccc(F)cc1)c1onc(-c2ccccc2)c1C(=O)O`, for which the “% Inhibition” value is reported as -10% and the Z score is reported as 1.3.

As to `CC(C)n1nc(C(=O)NCCCOC2CCN(Cc3ccccc3)CC2)c2c1CCOC2`, the “% Inhibition” value was -13% and the Z score came out at 1.67.

On to `O[C@H]1Cc2ccccc2[C@H]1Nc1nc(-c2ccccn2)nc2c1CCNC2`, for which the “% Inhibition” value is recorded as 29% and the Z score is listed as -2.29.

As for `CCc1nc(C)sc1C(=O)Nc1nc(C(=O)OC)c(CCc2ccccc2)s1`, the “% Inhibition” value is given as 9% and the Z score is given as -1.38.

Regarding `Cc1cc(C)n(-c2ccc(N3CCC(Nc4c(C)noc4C)CC3)cc2)n1`, the “% Inhibition” value is -4% and the Z score was 0.78.

Take `CCNC(=O)N1CCc2nc(N(C)C3CCCCC3)nc(N3CCOCC3)c2C1`: the “% Inhibition” value was -12% and the Z score was determined as 1.15.

As to `COc1cccn(CC(=O)N2C[C@H]3CC[C@@H](C2)[C@H]3OC)c1=O`, the “% Inhibition” value is reported as -3% and the Z score came to 0.32.

For `Cc1ccc(N2C[C@@H](C(=O)Nc3c(C)n(C)n(-c4ccccc4)c3=O)CC2=O)cc1`, the “% Inhibition” value is reported as -3% and the Z score is reported as 0.48.

For the molecule `CCCN(C(=O)c1cccs1)C1CCN(C(=O)c2ccc(COC)cc2)CC1`, the “% Inhibition” value is -4% and the Z score was determined as 0.48.

Regarding `Cc1ccsc1-c1nnc(CC(=O)NCc2ccncc2)o1`, the “% Inhibition” value is listed as -9% and the Z score came out at 1.5.

On to `CCn1ccc(C(=O)Nc2cccc(-c3nc4ccccc4s3)c2)n1`, for which the “% Inhibition” value is reported as -15% and the Z score worked out at 2.59.

Regarding `COc1cccc(-c2csc(-c3nc(-c4ccc(C)cc4)c(C)s3)n2)c1`, the “% Inhibition” value is -2% and the Z score was determined as 0.21.

On to `CCCCn1nc(C(C)C)nc1-c1scnc1C`, for which the “% Inhibition” value is given as -16% and the Z score worked out at 1.63.

Regarding `O=C(CC[C@H]1CCCN(C(=O)c2cn3ccccc3n2)C1)N1CCN(c2ccccn2)CC1`, the “% Inhibition” value is -7% and the Z score was 1.26.

Take `CCC(=O)N1CCN(C(=O)C2(O)CCCCC2)C1`: the “% Inhibition” value is recorded as -11% and the Z score stood at 2.22.

As for `CC(C)(C)OC(=O)N[C@H](C(N)=O)C1CCCCC1`, the “% Inhibition” value was -21% and the Z score stood at 2.1.

`Cn1nc(CN2CCOCC2)c2c1CCN(S(=O)(=O)c1cccc3cccnc13)C2`: the “% Inhibition” value was -14% and the Z score stood at 1.53.

For the molecule `Cc1nc2ncnn2c(N2CCN(CC(C)C)C(=O)C2)c1C`, the “% Inhibition” value is 19% and the Z score is -2.76.

On to `Cc1cc2c(cc1CNC(=O)c1ccccc1F)OCCCO2`, for which the “% Inhibition” value is given as -11% and the Z score came to 1.61.

As to `O=C(NCc1ccncc1)C1C2C(=O)N(C3CCCC3)C[C@]23C=C[C@H]1O3` (stereo partly specified), the “% Inhibition” value is -14% and the Z score is 1.77.

For the molecule `O[C@H]1[C@H](NCc2nccs2)[C@H]2CO[C@H](O2)[C@@H]1n1ccnc1`, the “% Inhibition” value is 32% and the Z score is reported as -3.6.

As for `CC(C)(C)NC(=O)CNC(=O)C1CCCCC1`, the “% Inhibition” value was -3% and the Z score is on record as 0.46.

With `C[C@H](Nc1ccc(Cl)cc1Cl)C(=O)N1CCC2(CCC2)C1`, the “% Inhibition” value is recorded as 2% and the Z score is recorded as -0.21.

Usually % Inhibition stands for the change of the read-out against control, counted positive when it falls.
